Laboratory results reported in publication PMC4336329 (PLoS ONE, 2015).
Screen size: about 310,000 compounds; about 14,000 (4.5%) showed an effect of 50% or more. Effects have a minus sign here. This is one part of the list.

These molecules were tested against human ether-à-go-go-related gene (hERG) potassium channel (human, UniProt Q12809) (assay: primary screen, population patch clamp on CHO cells stably expressing hERG).
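Also: peak tail current of the secondary pulse compared with the same well before compound.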

Sequence of human ether-à-go-go-related gene (hERG) potassium channel (Q12809 whole entry, looked up): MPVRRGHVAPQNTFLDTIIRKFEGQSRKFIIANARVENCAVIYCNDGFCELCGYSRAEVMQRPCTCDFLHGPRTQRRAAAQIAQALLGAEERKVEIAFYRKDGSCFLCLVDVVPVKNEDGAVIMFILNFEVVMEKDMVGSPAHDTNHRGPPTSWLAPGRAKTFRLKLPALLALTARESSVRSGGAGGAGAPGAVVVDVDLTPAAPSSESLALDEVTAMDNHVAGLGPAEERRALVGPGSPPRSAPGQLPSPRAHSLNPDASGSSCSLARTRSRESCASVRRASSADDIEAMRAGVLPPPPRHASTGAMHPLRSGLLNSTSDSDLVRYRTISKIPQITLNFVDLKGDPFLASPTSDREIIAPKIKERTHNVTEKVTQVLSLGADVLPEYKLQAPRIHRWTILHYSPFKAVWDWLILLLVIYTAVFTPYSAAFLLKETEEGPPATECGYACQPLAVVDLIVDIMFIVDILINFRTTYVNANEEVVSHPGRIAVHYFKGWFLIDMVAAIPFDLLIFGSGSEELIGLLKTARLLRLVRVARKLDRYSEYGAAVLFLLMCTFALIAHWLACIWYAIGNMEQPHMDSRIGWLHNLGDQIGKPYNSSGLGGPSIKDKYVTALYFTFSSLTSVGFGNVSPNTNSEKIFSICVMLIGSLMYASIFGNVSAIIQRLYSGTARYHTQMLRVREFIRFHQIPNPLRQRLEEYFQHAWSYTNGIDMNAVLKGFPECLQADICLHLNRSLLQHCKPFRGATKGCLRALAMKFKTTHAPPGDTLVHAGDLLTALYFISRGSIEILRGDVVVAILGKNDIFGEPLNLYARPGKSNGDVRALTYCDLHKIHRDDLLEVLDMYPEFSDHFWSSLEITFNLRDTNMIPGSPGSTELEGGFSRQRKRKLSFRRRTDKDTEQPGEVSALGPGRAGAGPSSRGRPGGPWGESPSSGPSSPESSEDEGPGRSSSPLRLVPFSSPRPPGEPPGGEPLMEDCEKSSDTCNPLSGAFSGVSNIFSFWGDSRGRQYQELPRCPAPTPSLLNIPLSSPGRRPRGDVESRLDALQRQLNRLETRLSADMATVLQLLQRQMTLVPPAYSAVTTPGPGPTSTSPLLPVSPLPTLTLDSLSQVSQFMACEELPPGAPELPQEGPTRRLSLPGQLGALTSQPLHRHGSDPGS

Row | Structure (SMILES) | hERG current change (%, negative = inhibition) at 10uM
1 | O=C1CCN(c2ncccc2[N+](=O)[O-])CC1 | 0.312%
2 | Cc1ccc2c(c1)N(CC(=O)NC1CCCCC1C)C(=O)CO2 (stereo not shown) | -0.706%
3 | N#Cc1ccc(N2CCc3ccccc3C2)c([N+](=O)[O-])c1 | -5.95%
4 | COc1cccc(-c2nc(CS(=O)(=O)CC(=O)Nc3ccccc3Br)c(C)o2)c1 | 7.31%
5 | NC(=O)Cn1cnc(-c2ccccc2)c1 | 9.58%
6 | CN(CCNC(=O)C1(O)c2ccccc2NC(=O)N1c1ccccc1)Cc1ccccc1 (stereo not shown) | -9.92%
7 | Cc1ccc2c(c1)C(=O)CC1(CCCCCC1)O2 | 17.6%
8 | CCC(=O)N(Cc1cc(=O)[nH]c2ccccc12)c1ccc(C)cc1C | -15.1%
9 | Cc1cc(NC(=O)Cn2nc(C(F)(F)F)c3c2CCC3)n(-c2ccccc2)n1 | -17.3%
10 | CCCSc1nc2c(c(=O)[nH]c(=O)n2C)n1CCc1ccccc1 | -8.5%
11 | CCCCOc1ccc(C2C(C(=O)c3ccc(C)o3)=C(O)C(=O)N2CC2CCCO2)cc1 (stereo not shown) | 9.79%
12 | Cc1cccc(NC(=S)NCc2ccccc2Cl)c1C | 8.23%
13 | COc1ccccc1Nc1ncnc2c1c(C)c(C)n2CCCN(C)C | -16.4%
14 | CCN(CC)CCNC(=O)Cn1cnc2sc(C)c(S(=O)(=O)N3CCC(C)CC3)c2c1=O | 8.72%
15 | O=C1CC2(CCN(C(=O)c3ccccc3Br)CC2)Oc2ccccc21 | -76.9%
16 | CCc1c(C)nc2nc(SCc3ccccc3Cl)[nH]n2c1=O | 19.5%
17 | CC(=O)C1=C(O)C(=O)N(c2ccc(S(=O)(=O)Nc3nccs3)cc2)C1c1ccc(F)cc1 (stereo not shown) | 22.8%
18 | Cc1cc(C)cc(-n2ncc3c2CCCC3NC(=O)CN2CCCCC2=O)c1 (stereo not shown) | 16.6%
19 | S=C(Nc1ccc(Cl)cc1)c1nc2ccccc2s1 | 7.77%
20 | O=C(NCc1ccc2c(c1)OCO2)c1ccc(NS(=O)(=O)c2ccc3c(c2)OCCO3)cc1 | 9.57%
21 | O=C(CCC(=O)Nc1ccc(F)cc1)N/N=C/c1ccncc1 | 8.6%
22 | COC(=O)c1nc2n(n1)C(c1ccc([N+](=O)[O-])cc1)C(C(=O)Nc1ccc(Cl)cc1)=C(C)N2 (stereo not shown) | 13.5%
23 | COC(=O)c1ccc(CSc2nc(-c3ccco3)cc(C(F)(F)F)n2)o1 | -19.1%
24 | COc1ccc(N2CCN(C(=O)NCc3cccc(OC)c3)CC2)cc1 | 4.4%
25 | CC1CCCN(C(=O)c2cc3c(=O)n4ccccc4nc3s2)C1 (stereo not shown) | 2.91%
26 | O=C1C(=O)c2ccccc2C(O)=C1C1CCC(c2ccc(Cl)cc2)CC1 (stereo not shown) | 14.9%
27 | CCn1c(=O)cc(OCC(=O)O)c2ccccc21 | 10.6%
28 | C[C@@H](C(=O)O)[C@@H]1C[C@@]1(C)[C@@H](NC(=O)OCc1ccccc1)c1ccccc1 | 16.8%

Row | Structure (SMILES) | hERG current change (%, negative = inhibition) at 10uM
29 | Cc1ccc(C2/C(=C(/O)c3cnn(-c4ccccc4)c3C)C(=O)C(=O)N2CCCN2CCOCC2)o1 (stereo not shown) | 1.43%
30 | CC(C)=CCC/C(C)=C/CC/C(C)=N/O | -14.7%
31 | COc1ccc(Cc2nnc(NC(=O)CS(=O)(=O)Cc3ccccc3)s2)cc1 | 19.9%
32 | CC(=O)N1CCc2cc(S(=O)(=O)NCCC(=O)Nc3cc(C)cc(C)c3)ccc21 | 2.19%
33 | COc1ccc(C(=O)Nc2ccc(N3CCN(Cc4ccccc4)CC3)cc2)cc1 | -4.78%
34 | COc1cccc(C(=O)Nc2nnc(S(=O)(=O)N(C)Cc3ccc(F)cc3)s2)c1 | 12.1%
35 | Cc1cc(C)cc(C(=O)NCC(=O)OCC(=O)N2c3ccccc3NC(=O)C2(C)C)c1 | -4.08%
36 | Cc1ccccc1C(=O)O/N=C/c1c(N2CCOCC2)n(C)c2ccccc12 | 1.1%
37 | O=C(CO/N=C/c1ccc(Cl)cc1Cl)NNC(=O)c1ccc(Cl)cc1Cl | 3.17%
38 | Br.Nc1nc(-c2ccc(Br)cc2)cs1 | -6.48%
39 | COc1ccccc1N1CCN(C2CCN(C(=O)c3ccc(F)cc3)CC2)CC1 | -61%
40 | C#CCNC(=O)C1=C[C@H](C)[C@@H](CCCO)[C@H](OCC)O1 | 11.7%
41 | Cc1cc(Br)c2c(c1)/C(=C/C(=O)c1cccs1)C(=O)N2 | 17%
42 | CCOc1ccc(N(CC)S(=O)(=O)c2cccc3nsnc23)cc1 | -1.57%
43 | CCCCN=C1CC(C)(C)CC(=O)/C1=C(/O)CCCN1C(=O)c2ccccc2C1=O | -61.4%
44 | Cc1ccc(Nc2cc(C)nc(-c3ccccc3O)n2)cc1 | 4.55%
45 | CC(C)(C)NS(=O)(=O)c1ccc(NS(C)(=O)=O)cc1 | -10.8%
46 | CCCOc1cccc(NC(=O)c2cc(C)oc2C)c1 | -2.06%
47 | COC(=O)[C@H]1[C@H]2C[C@H]3c4[nH]c5ccccc5c4CCN3C[C@H]2CC[C@@H]1O.Cl | 0.968%
48 | CC(=O)Nc1cc(C)nn1-c1nc2ccccc2s1 | 15.6%
49 | CC(=O)c1c(O)cc(C)n(Nc2nc(C)cc(C)n2)c1=O | 1.83%
50 | CC(C)(C)C(=O)N1CCN(S(=O)(=O)c2ccc3c(c2)OCCCO3)CC1 | -8.72%
51 | COC(=O)c1ccc(NC(=O)C(C)N2C(=O)c3ccccc3C2=O)cc1 (stereo not shown) | 6.09%
52 | CCn1c(=O)n(CC)c2cc(N3CCCC3)c(NC(=O)c3cccc(C)c3)cc21 | -5.12%
53 | Cc1nc(=O)c(-c2ccccc2)c(C)n1-c1ccc(Br)cc1 | -0.653%
54 | Cc1cc(C)cc(NS(=O)(=O)c2ccc(NC(=O)c3ccccc3C(=O)O)cc2)c1 | 9.88%
55 | CN(CC(=O)Nc1ccc(Cl)c(Cl)c1)CC(=O)Nc1ccc2c(c1)OCO2 | -3.52%
